# Data from the RNAGym collection of RNA variant scans (doi:10.1093/nar/gkz1192).
# Read counts are not given, so values of variants with three or more changes are uncertain.
# B1: CPEB3 Ribozyme (parent)
# chain: UAACAGGGGGCCACAGCAGAAGCGUUCACGUCGCAGCCCCUGUCAGAUUCUGGUGAAUCUGCGAAUUCUGCUGUAUAUCUC
# Variants of: B1
# Test: self-cleavage, relative activity (ratio to wild type); higher = more cleavage; in vitro, sequencing
# Summary of the method: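 Relative activity compares each variant's cleaved/total read fraction with that of the unmutated ribozyme. To get these fractions, barcoded CPEB3 ribozyme libraries from rounds of error-prone PCR were transcribed with T7 RNA polymerase for 5 hours at 37°C and then given 15 min of DNase I treatment before EDTA was added. The RNAs were reverse transcribed with template switching and sequenced on Illumina, and DNA sequencing linked barcodes to variants. A minimum of 5 reads applied, and three batches were averaged.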
row,Variant,self-cleavage
1,C11U U41C U48A U72G,0.09
2,C11U U41A U69C,0.16
3,C11G U49C U58C A65G U72G,0.1
4,C12G U26A U51G A64G,0.23
5,C12G U49C U67C,0.09
6,C11U C38U U51C,0.17
7,C11U A45G U60A,0.1
8,C12A A18G U31C,0.26
9,C12U A13U A18U A45G,0.42
10,C12U A13U G16A A20G U41G U72C,0.06
11,C11U A20G A28G U78C,0.34
12,C12A A13G C44U,0.39
13,C11U A13G A35G,0.95
14,C11U U31C U60C C68A,0.05
15,C12G A18U U26C,0.06
16,C11U A20U G24C U43C U72C,0.21
17,C12A A45U A47G A56G U67C U80A,0.1
18,C11U A18G A45C U54C,0.05
19,C12A A13G U25C,0.2
20,C11U U43C U48C U51A U80C,0.08
21,C12U A15G A28C C37U U74C U78C,0.6
22,C11U G22U G55A U78C,0.08
23,C12U A21G U25C C40A U69C C79U,0.07
24,C11G U43C U54C U66C U69C U74C,0.09

row,Variant,self-cleavage
1,C12G U51C A56G C62G A65G,0.14
2,C11U U26C A56U,0.05
3,C12A G16A U25C A35U U66C U76C U78A,0.03
4,C12A A21G U26A U80G,0.54
5,C12G C23A A56U U69A,0.08
6,C12G A13C C44U,0.08
7,C11U U43C G63A,0.12
8,C12A A13U U31C U67C U72A,0.13
9,C11U A18G A20G G24U U43C U72C,0.06
10,C12U A21G A56G A64G,0.45
11,C12G A35G C38G U60C C71U,0.04
12,C11G U69A U74G,0.12
13,C11U C34A U41A U48C A65U,0.03
14,C11U A57G U72A U80C,0.61
15,C12A U54C U72C U76A,1.21
16,C12U A47G U49C A77U,0.59
17,C11G U69A U78C,0.09
18,C12U A13G U26C C44U U54A,0.07
19,C11G U48A U51G U67C U74A,0.05
20,C11U G16U U41C,0.22
21,C11G U69C C79U,0.26
22,C11U A28G U43C A56G A64G A77G,0.02
23,C11U A35U U41A A47U,0.07
24,C12G A18G A45G A56G,0.2

row,Variant,self-cleavage
1,C12U C17U A28G C34A A35U A65G,0.07
2,C12U A13G U41A U48C,0.13
3,C12U A28G A64G,0.84
4,C11U U25C U60A U69A,0.13
5,C12U A18G U76C,1.22
6,C12U A20U U25C,0.1
7,C12A U48C A64G,0.29
8,C11G U60A A77C,0.11
9,C12A A13G C39G U67C C68G,0.13
10,C12A U25C A45C C50U,0.14
11,C12G U25A U58C U74A,0.04
12,C11U U25C A45G U76A U78C,0.16
13,C11U A20G A45U U80C,0.35
14,C12U A18G U48C A64G U72C,0.07
15,C12A A13U G16U U51G U54C A64G,0.09
16,C12U A18G A47U U49A A64G,0.18
17,C12U A56G U72A,0.94
18,C12U A15G U31C U43C C59U A64U U69C,0.04
19,C12U A13G U25C A28U C62U A65U,0.11
20,C12G U31C U41G A45G A56G,0.36
21,C11U U60C U67C U74A,0.09
22,C11U G24C U43C U72C,0.11
23,C11U A20G A21G U51C U66C A77G,0.05
24,C12U A13G U31A G33A A56G,0.1

row,Variant,self-cleavage
1,C11U U25C U43C C62U A65G,0.04
2,C12U A20G U54C,1.38
3,C11U A18C U51A,0.12
4,C12U A13C U43A A45C A64G U66C,0.21
5,C12G U54C U60C U72A A75G,0.07
6,C12U C17U U41C A45U G70A,1.2
7,C12A A35U U43C U80C,1.11
8,C11U A15G C23U U41C A75C U78C,0.05
9,C12U A64U U78G,0.65
10,C12U A15U U26A C29G U54C A56U U58C,0.07
11,C12A C40A A45U,0
12,C12U A15G A21U U58C,0.04
13,C12U A35G U43A A47U U58A A64G,0.87
14,C11U A20G A21G,0.36
15,C12U A15G U41C,0.77
16,C12A A15G U41C A77G,0.69
17,C12U A28G U41C U67C,0.13
18,C11U A18G U25C G46U G53C U60C,0.04
19,C11U U60G A64G,0.06
20,C11U U26C A28U A65G A77G,0.04
21,C12A C17U A64U,0.24
22,C12A C27G A35U A45U A47C A56U,0.15
23,C11U U43C U69A A77U,0.15
24,C11U A28U U69A U72C,0.07

row,Variant,self-cleavage
1,C12A A28U A56G A64G,0.68
2,C11U U66A U80C,0.1
3,C12G A15G A21G U31C U54C A65G U67C,0
4,C12G A13U U25A,0.08
5,C12U A18U U74C U78C,1.08
6,C12U A18G C34U U41C U54A,0.04
7,C12A U43C U72C,0.65
8,C12G A28U U51A U66C U78C,0.07
9,C11U A20U G73U,0.1
10,C12A A57C A75U,0.46
11,C11U U43A A45G U66C,0.04
12,C12U A20G U31C A65U C68A,0.13
13,C11U U31G A64U,0.09
14,C12U A13U A15G C29U U72A,0.19
15,C11U G24C U43C A47G U69C U72C,0.1
16,C11U A15G A35U U74C,0.36
17,C11U U31C U54C,0.24
18,C11U U26C U43A U72A,0.07
19,C11U U49C A57G,0.15
20,C11U A13U U41C,0.91
21,C12U C27U U51C U80C,0.12
22,C12A A47G U54G A56G U78G,0.6
23,C12G A45C A77G,0.08
24,C11U A35G A45G U54A A75C,1.29

row,Variant,self-cleavage
1,C11U A21G G24A U31C U43C A45G,0.26
2,C12A A21G U25C A28U A45G U48C A64U,0.11
3,C12U A35U A47G G53A U58C A75G,1.26
4,C12U A45U A77U,1.01
5,C11U U25C A45C U66G U67C,0.05
6,C11U A15U A18U C29U A47G U51C A57G,0.09
7,C12A U48C U51C,0.58
8,C11U G24C U43C G55A U60C,0.06
9,C12U A45G U60C A64U U69A,0.17
10,C12G U41C U67G,0.32
11,C12U C23G U26C C29U A45G U51C U78A,0.04
12,C11U C27G U49A A64G,0.04
13,C11U A28G A56G,0.25
14,C12U A13G A35G U49A U54C,0.69
15,C12U A15C A20G G22A,0.11
16,C11U A21G C38U,0.09
17,C12A C27G A35U A56G,0.09
18,C11U C12U C27A U31A U60A,0.04
19,C12U A47G U48C U54C A65G,0.09
20,C12A A15U U26C U31C U43A,0.4
21,C11U U25C U49C,0.23
22,C11U A15G U43A A75G,0.49
23,C12A C23G U60C,0.18
24,C12A U54C C62U,0.2

row,Variant,self-cleavage
1,C12A A13G U74C A75G,1.01
2,C12U A15C U26A U31A A65U U66C,0.13
3,C12U A20G A28G,0.76
4,C12A A20G U25A A45U U54C A77G,0.09
5,C12A A13G C29A A64U,0.29
6,C12A C17U C27G A56C,0.08
7,C12A U25A U41A,0.22
8,C11U G19C A28U C29U U43A U69C,0.02
9,C12U A18G U60G U80A,0.25
10,C12G C40U U41A U43A A57G U60C,0.15
11,C12G C17A U26A U31G G33C U48C U80C,0.04
12,C11U U26A U58C,0.19
13,C11U A28U U41C A47G A57G C81U,0.07
14,C12U A28U A35G U43A A56G U69C U78C,0.47
15,C11U C12U C38U U43C A57G U80C,0.07
16,C12G C37G U43A A47G U51C,0.29
17,C11U A15G U58C,0.42
18,C11G U67A U69G,0.04
19,C11U A28G U54C,0.11
20,C12U A15C A57G U78C,1.21
21,C12A C17G G22U,0.44
22,C12A U54C U60A U72C U80C,0.54
23,C11U A35G U43C U54C U60A U78C,0.06
